In one test the test system is HSkMC. As to the kind of experiment: cytotoxicity call (relative viability < 0.9). To be noted: 10 µM.
For a further test, the system named is HepG2. Kind of test: cytotoxicity call (relative viability < 0.9). To be noted: 10 µM.
The next test concerns S. aureus RN4220. Kind of test: growth inhibition call (relative growth <= 0.2). To be noted: 50 µM.

This is one part of the list.

`C[C@@H]1CCCCO[C@@H](CN(C)C(=O)CCC(F)(F)F)[C@@H](C)CN([C@@H](C)CO)C(=O)c2cc(NS(=O)(=O)c3ccccc3)ccc2O1`: the cytotoxicity call with HSkMC and in the test with HepG2 was “inactive” throughout. Also, the growth inhibition call in the test with S. aureus RN4220 was “inactive”.
Take `CO[C@H]1[C@H](OC)[C@@H](OC)C[C@@H]2C(=O)O[C@@H](C(=O)O)[C@@H]12`: the cytotoxicity call with HSkMC and in the test with HepG2 was “inactive” each time. In addition, the growth inhibition call in the test with S. aureus RN4220 is “inactive”.
Regarding `CN(C)C(=O)CN1CCN(C)C(=O)[C@]12CCN(c1ncc(F)cn1)C2`, the cytotoxicity call in the test with HSkMC and in the test on HepG2 was “inactive” each time. For the same compound, in the test on S. aureus RN4220, the growth inhibition call was “inactive”.
Turning to `C[C@@H]1CN([C@@H](C)CO)C(=O)c2cc(NS(=O)(=O)c3ccc(F)cc3)ccc2O[C@@H](C)CCCCO[C@H]1CN(C)S(=O)(=O)c1cn(C)cn1`, the cytotoxicity call in the test on HSkMC and with HepG2 was “inactive” throughout. In the test on S. aureus RN4220, the growth inhibition call was “inactive”.
On to `Cc1noc(C)c1S(=O)(=O)N(C)C[C@H]1Oc2ccc(NC(=O)C3CC3)cc2CC(=O)N([C@H](C)CO)C[C@@H]1C`, for which the cytotoxicity call in the test with HSkMC and in the test on HepG2 was “inactive” each time. In addition, the growth inhibition call in the test on S. aureus RN4220 was “inactive”.
For `O=C(CCCCCNC(=O)OCc1ccc(CO[C@@H]2C[C@H](c3ccc(C(F)(F)F)cc3)C=C(C(=O)N3CCN(Cc4ccc5c(c4)OCO5)CC3)O2)cc1)NO`, the cytotoxicity call with HSkMC and in the test with HepG2 was “inactive” throughout. Also, the growth inhibition call with S. aureus RN4220 was “inactive”.
Regarding `C[C@H]1CN([C@@H](C)CO)C(=O)c2cc(NC(=O)Nc3cccc4ccccc34)ccc2O[C@@H]1CN(C)S(=O)(=O)c1ccc(F)cc1`, the cytotoxicity call in the test on HSkMC and with HepG2 was “inactive” in each case. Besides, the growth inhibition call with S. aureus RN4220 was “inactive”.
As for `C[C@@H]1CCCCO[C@@H](CN(C)Cc2ccc(Cl)c(Cl)c2)[C@@H](C)CN([C@@H](C)CO)C(=O)c2cc(NC(=O)CCC(F)(F)F)ccc2O1`, the cytotoxicity call in the test on HSkMC is “inactive”. The cytotoxicity call in the test with HepG2 was “active”. In addition, in the test with S. aureus RN4220, the growth inhibition call is “inactive”.
As to `C[C@@H]1CN([C@@H](C)CO)C(=O)c2cc(-c3ccc(C(=O)N(C)C)cc3)cnc2O[C@H]1CN(C)C(=O)c1cccnc1`, the cytotoxicity call with HSkMC and with HepG2 was “inactive” each time. The growth inhibition call with S. aureus RN4220 is “inactive”.
As to `C[C@H](CO)N1C[C@H](C)[C@@H](CN(C)S(=O)(=O)c2ccc(-c3ccccc3)cc2)OCc2cn(nn2)CCCC1=O`, the cytotoxicity call in the test with HSkMC and in the test with HepG2 was “inactive” in each case. Moreover, the growth inhibition call with S. aureus RN4220 was “inactive”.
Turning to `C[C@@H]1CN([C@@H](C)CO)C(=O)c2cc(NC(=O)Nc3ccccc3)ccc2O[C@@H](C)CCCCO[C@@H]1CN(C)C(=O)Nc1ccc2c(c1)OCO2`, the cytotoxicity call in the test with HSkMC and in the test on HepG2 was “inactive” in each case. Besides, the growth inhibition call in the test on S. aureus RN4220 is “inactive”.
As to `O=S1(=O)CC[C@H](S(=O)(=O)[C@H]2CCS(=O)(=O)C2)C1`, the cytotoxicity call in the test on HSkMC and in the test on HepG2 was “inactive” each time. Further, the growth inhibition call in the test with S. aureus RN4220 was “inactive”.
`C[C@H](CO)N1C[C@H](C)[C@H](CN(C)C(=O)Nc2ccc(F)cc2)Oc2c(NS(C)(=O)=O)cccc2C1=O`: the cytotoxicity call in the test on HSkMC and in the test with HepG2 was “inactive” in each case. Besides, the growth inhibition call in the test on S. aureus RN4220 is “inactive”.
On to `NC(=O)c1ccc[n+](C2OC(COP(=O)([O-])OP(=O)(O)OCC3OC(n4cnc5c(N)ncnc54)C(O)C3O)C(O)C2O)c1` (configuration not stated), for which the cytotoxicity call in the test on HSkMC and in the test on HepG2 was “inactive” in each case. In addition, the growth inhibition call in the test with S. aureus RN4220 is “inactive”.
Turning to `Cc1cccc(NC(=O)Nc2ccc3c(c2)C(=O)N(C)[C@H]2CC[C@@H](CC(=O)NCc4ccccc4Cl)O[C@H]2CO3)c1`, the cytotoxicity call in the test with HSkMC and with HepG2 was “inactive” each time. Also, the growth inhibition call in the test on S. aureus RN4220 was “inactive”.
As for `COc1ccc(NC(=O)Nc2ccc3c(c2)C(=O)N([C@H](C)CO)C[C@@H](C)[C@@H](CN(C)S(=O)(=O)c2ccccc2)OCCCC[C@H](C)O3)cc1`, the cytotoxicity call in the test with HSkMC and in the test with HepG2 was “inactive” throughout. Also, in the test on S. aureus RN4220, the growth inhibition call is “inactive”.
For the compound `O=C(O)[C@H](O)[C@@H](O)C(=O)O`, the cytotoxicity call in the test on HSkMC (human skeletal muscle cells) and in the test with HepG2 was “inactive” throughout. Moreover, in the test with S. aureus RN4220, the growth inhibition call is “inactive”.
Take `Cc1noc(C)c1S(=O)(=O)N(C)C[C@@H]1OCc2cn(nn2)CCCC(=O)N([C@H](C)CO)C[C@@H]1C`: the cytotoxicity call in the test with HSkMC and in the test with HepG2 was “inactive” throughout. In addition, the growth inhibition call with S. aureus RN4220 was “inactive”.
For `C[C@H]1CN([C@@H](C)CO)C(=O)Cc2cc(NS(=O)(=O)c3cn(C)cn3)ccc2O[C@@H]1CN(C)S(=O)(=O)c1cccs1`, the cytotoxicity call in the test with HSkMC and in the test on HepG2 was “inactive” throughout. The growth inhibition call in the test with S. aureus RN4220 was “inactive”.
For `C[C@@H]1CN([C@@H](C)CO)S(=O)(=O)c2ccc(C#CCN(C)C)cc2O[C@@H]1CN(C)Cc1ccncc1`, the cytotoxicity call with HSkMC and in the test on HepG2 was “inactive” each time. Moreover, the growth inhibition call in the test on S. aureus RN4220 was “inactive”.
Regarding `COc1ccccc1-c1cnc2c(c1)C(=O)N([C@@H](C)CO)C[C@@H](C)[C@@H](CN(C)C(=O)c1cccnc1)O2`, the cytotoxicity call with HSkMC and in the test on HepG2 was “inactive” in each case. Also, the growth inhibition call in the test on S. aureus RN4220 was “inactive”.
For the compound `C#CC[C@H](c1nc2cc(Cl)ccc2c(=O)n1Nc1ccccc1)N(CCCN)C(=O)c1cccc(Cl)c1F`, the cytotoxicity call with HSkMC and in the test with HepG2 was “active” in each case. Further, the growth inhibition call in the test with S. aureus RN4220 was “active”.
In the case of `C[C@@H]1CN([C@H](C)CO)C(=O)Cc2cc(NC(=O)Nc3cccc4ccccc34)ccc2O[C@H]1CN(C)C(=O)Nc1ccc(F)cc1`, the cytotoxicity call in the test with HSkMC and in the test on HepG2 was “inactive” each time. For the same compound, the growth inhibition call with S. aureus RN4220 was “inactive”.
Regarding `COc1ccc(S(=O)(=O)N(C)C[C@@H]2OCCCC[C@H](C)Oc3ccc(NC(=O)Nc4ccc(C(F)(F)F)cc4)cc3C(=O)N([C@H](C)CO)C[C@H]2C)cc1`, the cytotoxicity call in the test with HSkMC and with HepG2 was “inactive” throughout. In the test on S. aureus RN4220, the growth inhibition call is “inactive”.

(Values after the antibiotic and cytotoxicity screens of Wong et al. (2023).)
